# Experimental data reported in the supplement of paper PMC11741623.
# The list shows a part of the results. Interaction screen of human proteins with wild-type SARS-CoV-2 proteins by split-DHFR complementation in yeast, 1 µg/mL methotrexate. Value = fitness of the pair (three or more lineages) minus that of the viral protein without a human partner, on a scale set by negative (0) and fused positive (1) controls, mean of up to three cultures; higher = more likely to interact. Active = false discovery rate below 0.05 (one-sided t-test) in at least one culture. Nearly all pairs are not hits, and differences among them are mostly noise (correlation between cultures about 0.3); most hits were seen in one culture only. Human sequences are the Swiss-Prot entries looked up by gene name; the clone may be another isoform. NSP2 values were corrected by the authors for a growth advantage. Listed are human proteins with a hit and a random twelfth of the others.
# B1: B9D2, Q9BPU9 (protein)
# chain: MAEVHVIGQIIGASGFSESSLFCKWGIHTGAAWKLLSGVREGQTQVDTPQIGDMAYWSHPIDLHFATKGLQGWPRLHFQVWSQDSFGRCQLAGYGFCHVPSSPGTHQLACPTWRPLGSWREQLARAFVGGGPQLLHGDTIYSGADRYRLHTAAGGTVHLEIGLLLRNFDRYGVEC
# B2: C15orf63, Q9NX55 (protein)
# chain: MATEGDVELELETETSGPERPPEKPRKHDSGAADLERVTDYAEEKEIQSSNLETAMSVIGDRRSREQKAKQEREKELAKVTIKKEDLELIMTEMEISRAAAERSLREHMGNVVEALIALTN
# B3: C18orf1, O15165 (protein)
# chain: MPEAGFQATNAFTECKFTCTSGKCLYLGSLVCNQQNDCGDNSDEENCLLVTEHPPPGIFNSELEFAQIIIIVVVVTVMVVVIVCLLNHYKVSTRSFINRPNQSRRREDGLPQEGCLWPSDSAAPRLGASEIMHAPRSRDRFTAPSFIQRDRFSRFQPTYPYVQHEIDLPPTISLSDGEEPPPYQGPCTLQLRDPEQQMELNRESVRAPPNRTIFDSDLIDIAMYSGGPCPPSSNSGISASTCSSNGRMEGPPPTYSEVMGHHPGASFLHHQRSNAHRGSRLQFQQNNAESTIVPIKGKDRKPGNLV
# B4: CD5L, O43866 (protein)
# chain: MALLFSLILAICTRPGFLASPSGVRLVGGLHRCEGRVEVEQKGQWGTVCDDGWDIKDVAVLCRELGCGAASGTPSGILYEPPAEKEQKVLIQSVSCTGTEDTLAQCEQEEVYDCSHDEDAGASCENPESSFSPVPEGVRLADGPGHCKGRVEVKHQNQWYTVCQTGWSLRAAKVVCRQLGCGRAVLTQKRCNKHAYGRKPIWLSQMSCSGREATLQDCPSGPWGKNTCNHDEDTWVECEDPFDLRLVGGDNLCSGRLEVLHKGVWGSVCDDNWGEKEDQVVCKQLGCGKSLSPSFRDRKCYGPGVGRIWLDNVRCSGEEQSLEQCQHRFWGFHDCTHQEDVAVICSG
# B5: FUCA1, P04066 (protein)
# chain: MRAPGMRSRPAGPALLLLLLFLGAAESVRRAQPPRRYTPDWPSLDSRPLPAWFDEAKFGVFIHWGVFSVPAWGSEWFWWHWQGEGRPQYQRFMRDNYPPGFSYADFGPQFTARFFHPEEWADLFQAAGAKYVVLTTKHHEGFTNWPSPVSWNWNSKDVGPHRDLVGELGTALRKRNIRYGLYHSLLEWFHPLYLLDKKNGFKTQHFVSAKTMPELYDLVNSYKPDLIWSDGEWECPDTYWNSTNFLSWLYNDSPVKDEVVVNDRWGQNCSCHHGGYYNCEDKFKPQSLPDHKWEMCTSIDKFSWGYRRDMALSDVTEESEIISELVQTVSLGGNYLLNIGPTKDGLIVPIFQERLLAVGKWLSINGEAIYASKPWRVQWEKNTTSVWYTSKGSAVYAIFLHWPENGVLNLESPITTSTTKITMLGIQGDLKWSTDPDKGLFISLPQLPPSAVPAEFAWTIKLTGVK
# Target: SARS-CoV-2 M
# Test: yeast fitness gain over the viral ORF with no human partner (scaled fitness); higher = more likely to interact
# Description: (§1)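 Split mouse DHFR complementation in pooled diploid yeast: human ORFeome clones carry one fragment and viral ORFs the other; barcoded lineages compete in 1 µg/mL methotrexate and fitness is read by barcode sequencing in up to three cultures.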
row,Binder,yeast fitness gain
1,B1,inactive: -0.154
2,B2,inactive: -0.146
3,B3,inactive: -0.0493
4,B4,inactive: -0.0714
5,B5,inactive: -0.242

# Target: SARS-CoV-2 N
# Test: as above
# Description: as §1
row,Binder,yeast fitness gain
1,B1,inactive: 0.0778
2,B5,inactive: 0.0135

# Target: SARS-CoV-2 NSP10
# Test: as above
# Description: as §1
row,Binder,yeast fitness gain
1,B1,inactive: -0.00604
2,B2,inactive: 0.0456
3,B3,inactive: 0.0576
4,B4,inactive: 0.00174
5,B5,inactive: -0.025

# Target: SARS-CoV-2 NSP12
# Test: as above
# Description: as §1
row,Binder,yeast fitness gain
1,B1,inactive: -0.175
2,B2,inactive: -0.0345
3,B3,inactive: 0.00669
4,B4,inactive: 0.107

# Target: SARS-CoV-2 NSP13
# Test: as above
# Description: as §1
row,Binder,yeast fitness gain
1,B1,inactive: 0.0388
2,B2,inactive: 0.0472
3,B3,inactive: -0.0498
4,B4,inactive: 0.0549
5,B5,inactive: -0.212

# Target: SARS-CoV-2 NSP14
# Test: as above
# Description: as §1
row,Binder,yeast fitness gain
1,B1,inactive: -0.263
2,B2,inactive: 0.00581
3,B3,inactive: -0.000602

# Target: SARS-CoV-2 NSP16
# Test: as above
# Description: as §1
row,Binder,yeast fitness gain
1,B1,inactive: 0.00791
2,B2,inactive: -0.0453
3,B3,inactive: -0.0111
4,B4,inactive: 0.0154

# Target: SARS-CoV-2 NSP2
# Test: as above
# Description: as §1
row,Binder,yeast fitness gain
1,B1,inactive: -0.0825
2,B2,inactive: 0.0375
3,B3,inactive: -0.139
4,B4,inactive: -0.0947
5,B5,inactive: 0.0244

# Target: SARS-CoV-2 NSP5
# Test: as above
# Description: as §1
row,Binder,yeast fitness gain
1,B1,inactive: 0.0996
2,B2,inactive: -0.063
3,B3,inactive: 0.083
4,B4,inactive: 0.091
5,B5,inactive: -0.0501

# Target: SARS-CoV-2 NSP7
# Test: as above
# Description: as §1
row,Binder,yeast fitness gain
1,B1,inactive: -0.0151
2,B2,inactive: 0.0374
3,B3,inactive: 0.0317

# Target: SARS-CoV-2 NSP8
# Test: as above
# Description: as §1
row,Binder,yeast fitness gain
1,B1,inactive: -0.0741
2,B2,inactive: -0.0965
3,B3,inactive: 0.0844
4,B4,inactive: -0.0831

# Target: SARS-CoV-2 NSP9
# Test: as above
# Description: as §1
row,Binder,yeast fitness gain
1,B1,inactive: -0.142
2,B2,inactive: -0.136
3,B3,inactive: -0.00859

# Target: SARS-CoV-2 ORF10
# Test: as above
# Description: as §1
row,Binder,yeast fitness gain
1,B1,inactive: -0.0518
2,B2,inactive: -0.0898
3,B3,inactive: -0.0176
4,B5,inactive: -0.0183

# Target: SARS-CoV-2 ORF3A
# Test: as above
# Description: as §1
row,Binder,yeast fitness gain
1,B1,inactive: 0.0649
2,B3,inactive: -0.0835

# Target: SARS-CoV-2 ORF3B
# Test: as above
# Description: as §1
row,Binder,yeast fitness gain
1,B1,inactive: 0.008
2,B2,inactive: 0.0637
3,B3,inactive: -0.0167
4,B4,inactive: 0.0376
5,B5,inactive: -0.153

# Target: SARS-CoV-2 ORF6
# Test: as above
# Description: as §1
row,Binder,yeast fitness gain
1,B1,inactive: 0.0496
2,B2,inactive: 0.0278
3,B3,inactive: 0.0221
4,B4,inactive: -0.0667
5,B5,inactive: -0.0912

# Target: SARS-CoV-2 ORF7A
# Test: as above
# Description: as §1
row,Binder,yeast fitness gain
1,B1,inactive: -0.0254
2,B2,inactive: -0.0632
3,B3,inactive: 0.0546
4,B4,inactive: 0.0711

# Target: SARS-CoV-2 ORF7B
# Test: as above
# Description: as §1
row,Binder,yeast fitness gain
1,B1,inactive: -0.0731
2,B2,inactive: -0.0902
3,B3,inactive: 0.00938
4,B4,inactive: -0.0057
5,B5,inactive: -0.0107

# Target: SARS-CoV-2 ORF8
# Test: as above
# Description: as §1
row,Binder,yeast fitness gain
1,B1,inactive: -0.076
2,B2,inactive: 0.039
3,B3,inactive: 0.0122
4,B4,inactive: -0.014

# Target: SARS-CoV-2 ORF9B
# Test: as above
# Description: as §1
row,Binder,yeast fitness gain
1,B1,inactive: -0.0966
2,B2,inactive: -0.00585
3,B3,inactive: -0.0355
4,B4,inactive: -0.0588
5,B5,inactive: -0.138

# Target: SARS-CoV-2 ORF9Bwu (the 73-codon ORF)
# Test: as above
# Description: as §1
row,Binder,yeast fitness gain
1,B1,inactive: 0.0782
2,B2,inactive: 0.0623
3,B3,inactive: 0.0386
4,B4,inactive: 0.0172

# Target: SARS-CoV-2 S
# Test: as above
# Description: as §1
row,Binder,yeast fitness gain
1,B1,inactive: 0.0144
2,B2,inactive: 0.00366
3,B3,inactive: -0.0602
4,B4,inactive: 0.0295
5,B5,inactive: -0.107

# Target: SARS-CoV-2 NSP1
# Test: as above
# Description: as §1
row,Binder,yeast fitness gain
1,B2,inactive: -0.0645
2,B3,inactive: 0.0229
3,B4,inactive: -0.000721

# Target: SARS-CoV-2 NSP15
# Test: as above
# Description: as §1
row,Binder,yeast fitness gain
1,B2,inactive: 0.0962

# Target: SARS-CoV-2 NSP4
# Test: as above
# Description: as §1
row,Binder,yeast fitness gain
1,B2,inactive: 0.101
2,B3,inactive: -0.0768

# Target: SARS-CoV-2 NSP6
# Test: as above
# Description: as §1
row,Binder,yeast fitness gain
1,B2,inactive: 0.0168
2,B3,inactive: 0.0615
3,B4,inactive: -0.11
